Laboratory results published in the supplement of paper PMC12217912.
Some of the results follow. Sequences were assembled here from the parent chain. Values near 0.05 are background.

B1: TEV protease; numbered along this chain (parent)
chain: MGESLFKGPRDYNPISSSICHLTNESDGHTTSLYGIGFGPFIITNKHLFRRNNGTLVVQSLHGVFKVKDTTTLQQHLVDGRDMIIIRMPKDFPPFPQKLKFREPQREERICLVTTNFQTKSMSSMVSDTSCTFPSGDGIFWKHWIQTKDGQCGSPLVSTRDGFIVGIHSASNFTNTNNYFTSVPKNFMELLTNQEAQQWVSGWRLNADSVLWGGHKVFMVKPEEPFQPVKEATQL

Variants of: B1
Experiment: raw area under fraction-flipped curve 0-4 h after induction (AUC4h, not background-subtracted), DNA-recorder readout of cleavage of the substrate (dimensionless); higher = more cleavage of the substrate by the protease variant
Conditions: temperature: 34 °C; time window: 0-4 h after rhamnose induction
Method: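 In vivo DNA recorder in E. coli TOP10(DE3) ΔrhaA at 34 °C. Each TEVp single-site mutant (parent TEVp 0) is paired with a single-site variant of the 7-mer TEVs (canonical ENLYFQ|S). The substrate sits between flexible linkers in a Bxb1-sfGFP-TEVs-SsrA fusion, so cleavage stabilises Bxb1 and speeds flipping of a recombination array, read by NGS. The value is the raw area under the fraction-flipped curve over 0-4 h after rhamnose induction (AUC4h), with ≥20 reads per time point. It is not background-subtracted; inactive controls average about 0.047.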
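Further: Bxb1 expression induced with 0.2% (w/v) L-rhamnose at OD600 near 0.5, cultures sampled hourly, flipped fraction per protease–substrate barcode pair counted by paired-end Illumina sequencing.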

Variant	area with substrate EALYFQS	area with substrate EDLYFQS	area with substrate EELYFQS	area with substrate EGLYFQS	area with substrate EPLYFQS	area with substrate EQLYFQS	area with substrate ERLYFQS	area with substrate ESLYFQS	area with substrate ETLYFQS	area with substrate EVLYFQS	area with substrate ECLYFQS	area with substrate EFLYFQS	area with substrate EHLYFQS	area with substrate EILYFQS	area with substrate EKLYFQS	area with substrate ELLYFQS	area with substrate EWLYFQS	area with substrate EMLYFQS	area with substrate EYLYFQS
P94M	0.141	0.148	0.126	0.111	0.153	0.115	0.0301	0.112	0.101	0.0856	–	–	–	–	–	–	–	–	–
V57A	0.0923	0.157	–	0.0928	–	0.0872	0.102	0.109	0.0776	–	0.105	0.1	0.134	0.0907	0.122	0.102	0.117	–	–
V57C	0.113	0.123	0.125	0.0655	–	0.127	0.11	0.101	0.11	0.0774	0.0892	0.103	0.105	0.0728	–	–	0.11	0.129	–
V57D	0.108	–	–	–	–	0.125	–	0.117	0.112	–	0.125	–	–	0.107	0.105	–	–	–	0.137
G63V	0.104	0.112	0.109	–	0.1	0.102	–	0.0884	0.0935	0.0698	0.0841	–	0.0924	0.0782	0.0695	0.123	0.0789	0.0861	–
P104Q	0.0599	–	–	–	–	0.0704	–	0.052	–	0.045	0.0562	0.0224	–	–	0.0417	0.0496	–	–	0.0372
D69M	0.114	–	0.0931	0.1	0.0688	–	0.0958	0.0775	0.134	0.0627	0.079	0.118	–	0.0843	0.0948	0.0446	–	0.0842	0.0698
S60A	0.124	0.0715	–	0.0842	0.154	0.112	0.12	0.102	0.0977	0.085	0.0913	–	–	0.0502	–	0.0855	–	–	–
T115D	0.0911	–	0.104	0.114	0.0989	0.128	0.106	0.108	–	0.103	0.12	–	–	0.107	0.127	0.0941	0.0649	0.118	–
T115V	0.109	0.151	0.139	–	0.125	0.131	–	0.0949	–	–	0.0974	0.105	0.0824	–	0.116	0.097	–	0.103	–
T115S	0.101	0.16	–	0.0506	0.11	–	0.0836	0.106	0.122	0.111	0.0936	0.0957	–	0.0914	0.104	0.103	–	–	–
K68M	0.151	0.124	–	–	0.103	0.121	0.0858	–	–	0.0919	0.118	–	0.11	–	0.122	0.108	–	0.105	–
K68N	0.111	–	0.146	–	0.128	–	0.111	0.0914	–	0.128	0.12	–	0.145	0.0813	0.0872	0.0754	0.111	0.135	–
R102K	0.134	0.145	–	0.0974	0.158	–	0.119	0.104	0.122	0.0991	0.102	0.0978	0.105	0.0995	–	0.102	0.104	0.0956	0.11
E108L	0.082	–	–	0.0849	–	–	0.0741	0.0565	0.0686	0.0776	0.0573	0.0543	–	0.0359	–	–	–	0.0694	–
E108H	0.0952	0.0858	0.0699	0.0557	–	0.0816	0.0799	0.0614	0.0783	0.0405	0.0037	–	0.0479	0.0747	0.0763	0.0388	–	0.0731	0.0724
E108C	0.0688	0.0783	0.0787	0.0531	0.088	0.0748	0.0736	0.0787	–	0.0607	0.0253	–	–	0.0685	0.0769	0.0731	0.0596	0.0731	0.0699
P93R	0.108	0.104	–	–	–	–	0.0958	–	–	–	0.11	–	–	0.0831	–	–	–	–	–
P93H	0.115	–	0.11	–	–	0.109	0.11	0.0855	–	–	0.0984	–	0.0934	–	0.101	–	–	0.099	–
F65Y	0.156	0.135	–	–	0.142	0.113	–	0.105	–	0.109	0.116	–	–	0.0941	–	0.121	0.11	0.143	–
G80Y	0.149	0.174	–	–	0.126	0.117	0.115	0.116	0.11	–	0.0987	0.0833	–	0.0898	0.122	0.111	–	0.0935	–
D82E	0.0815	0.0992	0.0039	0.0678	–	0.0712	–	0.0693	–	0.0646	0.0653	0.085	–	0.0519	0.0765	0.0575	–	0.0665	0.0647
H76P	0.0577	–	0.0617	–	0.0766	0.0541	–	0.0641	0.0562	–	0.0573	0.003	–	0.0507	0.054	0.0474	0.0365	0.0517	0.0533
E107C	0.0789	–	0.101	–	–	0.102	–	0.0844	–	0.0874	0.0823	0.0943	0.0867	–	–	–	–	–	0.125
V67Q	0.0842	0.0932	–	–	0.0839	0.0943	0.0703	0.0823	–	0.0747	0.0742	–	0.0883	0.0694	–	0.0871	0.0755	–	–
Q75T	0.0988	–	0.105	–	–	0.126	–	0.0898	–	0.0874	0.0844	0.139	–	0.0774	0.0761	0.104	–	0.0453	0.0825
Q75H	0.0805	0.0765	0.0809	0.0677	0.115	0.0699	0.0642	0.0755	0.0689	0.0658	0.0707	0.0777	0.0759	0.0587	0.0705	0.0652	0.0576	0.0829	0.058
F101T	0.055	0.0454	0.0593	–	–	–	0.0628	0.0598	–	0.0547	0.0549	0.0794	0.0556	0.059	–	0.0656	0.0674	–	–
